# Data as given in PubChem BioAssay AID540317 (National Center for Advancing Translational Sciences (NCATS), 2011).
# The whole screen tested about 390,000 compounds, of which about 2,200 (0.56%) were called active. The shares of active, inactive and inconclusive entries below differ from those in the screen. Calls follow the shape of the dose curve; as a rule, active = well fitted inhibition curve with a large enough effect; inconclusive = small, poorly fitted or top-dose-only effect; inactive = no such curve, though single readings can be large or run the other way. Potencies beside an inconclusive call are fits to weak or partial responses and may not hold up.
# Molecular target: Chromobox protein homolog 1 (Homo sapiens) (UniProt P83916)
# Experiment: HTS for Inhibitors of HP1-beta Chromodomain Interactions with Methylated Histone Tails; also: nearly all actives have a fitted effect of over 70% in size
# Details: AlphaScreen HP1-beta / biotin-H3K9me3 peptide binding; series mostly up to 114 µM; activity change, negative = inhibition: at the top concentration
# In short: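 Compound inhibition of the preformed complex between 50 nM HP1-beta and 50 nM biotinylated H3K9me3 peptide was read by AlphaScreen. Buffer was PBS pH 7.4 with 0.01% Tween-20. Incubations ran 30 min at room temperature, with 10 ug/mL donor/acceptor beads.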
# Potency is read from the fitted curve at half-maximal effect; tags tell the direction and shape of the fitted curve.
# Chain of UniProt P83916 (P83916 whole entry, looked up): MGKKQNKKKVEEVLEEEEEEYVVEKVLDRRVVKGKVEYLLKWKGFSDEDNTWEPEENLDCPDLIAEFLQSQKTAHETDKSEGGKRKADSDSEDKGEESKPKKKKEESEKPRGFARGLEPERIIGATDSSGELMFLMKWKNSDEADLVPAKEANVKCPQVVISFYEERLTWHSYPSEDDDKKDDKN
Compound,Potency,"activity change, negative = inhibition"
O=C(Cc1ccccc1)NCc1n[nH]c(=S)n1-c1ccccc1,"inconclusive: 39.8 µM [inhibitor, single point]",–
CCC(C)N1CCN(S(=O)(=O)c2ccc3ccccc3c2)CC1 (stereo not drawn),"inconclusive: 20 µM [inhibitor, full curve]",–
CCN(CCCNC(=O)CN1N=C(c2ccc(C)cc2)CCC1=O)c1ccccc1,"inconclusive: 44.7 µM [inhibitor, partial curve, poor fit]",–
CCOc1ccc(NC(=O)CSc2cn[nH]n2)cc1,–,inactive: 39.2%
COc1ccc(OC)c(CNc2ncc(-c3ccc(Cl)cc3)n2C)c1,"inconclusive: 22.4 µM [inhibitor, full curve]",–
COc1ccc(-c2cc(C(F)(F)F)nc(N)n2)cc1,"inconclusive: 39.8 µM [inhibitor, single point]",–
CCN(Cc1ccccc1)S(=O)(=O)c1ccc(F)c(C(=O)Nc2ccc(C(C)C)cc2)c1,–,inactive: 59.4%
CC(=O)Nc1ccc(NC(=O)C(C)OC(=O)COc2ccc(Nc3ccccc3)cc2)cc1 (stereo not drawn),"inconclusive: 50.1 µM [inhibitor, partial curve, poor fit]",–
O=C(O)c1ccccc1NS(=O)(=O)c1ccc(NN=Cc2cccc(Cl)c2)c([N+](=O)[O-])c1,active: 79.4 µM,–
Cc1cccc(NC(=S)NC2CCCCCC2)c1C,"inconclusive: 39.8 µM [inhibitor, single point]",–
O=C(c1ccccc1)N1CCN(CC(O)Cn2ccc3ccccc32)CC1 (stereo not drawn),"inconclusive: 25.1 µM [inhibitor, partial curve]",–
FC(F)(F)c1ccccc1NC(=S)Nc1cccc2cnccc12,"inconclusive: 14.1 µM [inhibitor, partial curve, poor fit]",–
C=C(C)CNC(=S)N/N=C1\CCCCc2ccccc21,"inconclusive: 50.1 µM [inhibitor, partial curve, poor fit]",–
C=CCOc1ccccc1CN1CCC(Cc2ccccc2)CC1,"inconclusive: 56.2 µM [inhibitor, single point]",–
Cc1nc2ccccc2c(=O)n1/N=C/c1cc(Br)ccc1O,–,inactive: 54.1%
Cc1cc(C)c(S(=O)(=O)NCc2ccc3c(c2)OCO3)cc1C,"inconclusive: 35.5 µM [inhibitor, single point]",–
CCCc1c(C(=O)N/N=C(\C)CCc2ccccc2)nnn1-c1nonc1N,–,inactive: -4.03%
COC(=O)c1ccccc1NC(=O)CSc1nc(N)cc(=O)[nH]1,"inconclusive: 50.1 µM [inhibitor, partial curve]",–
CC1=Nc2ccccc2/C1=C/c1c(C)[nH]c2ccccc12,"inconclusive: 35.5 µM [inhibitor, partial curve]",–
CCOc1ccc(-c2cc3nc(C4CCN(C(=O)OC(C)(C)C)CC4)c(C(=O)Nc4ccc(C)cc4Cl)cn3n2)cc1,–,inactive: 63.2%
COC(=O)c1c(C)sc(-c2c(-c3ccc4c(c3)OCCO4)[nH]c3[nH]c(=O)[nH]c(=O)c23)c1O,"inconclusive: 28.2 µM [inhibitor, partial curve, poor fit]",–
COc1cc([N+](=O)[O-])cc(/C=N/N(CCC#N)C(C)=O)c1O,–,inactive: 11%
CCCCCC(=O)NC(NC(=S)NC1CCS(=O)(=O)C1)C(Cl)(Cl)Cl (stereo not drawn),–,inactive: 17%

Compound,Potency,"activity change, negative = inhibition"
COc1ccc(Nc2nnc(SCC(=O)/C=C3/N(C)c4ccccc4C3(C)C)s2)cc1,"inconclusive: 31.6 µM [inhibitor, single point]",–
COc1ccc(-c2nn(-c3ccccc3)cc2C(=O)NC(=S)NNC(=O)c2ccncc2)cc1,"inconclusive: 14.1 µM [inhibitor, partial curve, poor fit]",–
Cc1ccc(C(=O)NC(=S)Nc2ccc(N3CCOCC3)cc2)cc1C,"inconclusive: 39.8 µM [inhibitor, partial curve]",–
Cc1ccc(/C=C2\SC(=S)N(CCCC(=O)N3CCOCC3)C2=O)cc1,"inconclusive: 15.8 µM [inhibitor, partial curve, poor fit]",–
CC(C)(C)c1ccc(C2C(C(=O)c3ccco3)=C(O)C(=O)N2CC2CCCO2)cc1 (stereo not drawn),–,inactive: 14.4%
CCN(c1ccccc1)S(=O)(=O)c1ccc(OC)c(NC(=O)CNCCc2ccccc2)c1,active: 50.1 µM,–
C=CC#CC1(O)CC(C)[N+](C)(C)CC1C (stereo not drawn),"inconclusive: 79.4 µM [inhibitor, partial curve]",–
CCc1nn(Cc2cccc(F)c2)c(=O)c2cc3cc(C)ccc3n12,–,inactive: 28.1%
N#Cc1nc(COc2ccc(-c3ccccc3)cc2)oc1NCCCN1CCOCC1,"inconclusive: 79.4 µM [inhibitor, partial curve, poor fit]",–
CN(C)S(=O)(=O)N1CCC(Oc2cccc(C(=O)NC3CCCCC3)c2)CC1,"inconclusive: 10 µM [inhibitor, partial curve]",–
O=C(Cc1ccccc1)NC(NC(=S)Nc1cc(Cl)ccc1Cl)C(Cl)(Cl)Cl (stereo not drawn),"inconclusive: 10 µM [inhibitor, partial curve, poor fit]",–
COC(=O)C1(C)CN(S(=O)(=O)c2ccc(C)cc2)c2cc(OC)ccc2C1=O (stereo not drawn),"inconclusive: 35.5 µM [inhibitor, partial curve]",–
CC(C)(C)c1ccc(S(=O)(=O)NC(Cc2ccccc2)C(=O)O)cc1 (stereo not drawn),"inconclusive: 31.6 µM [inhibitor, single point]",–
NC(=S)NN=Cc1ccc(-c2ccc(S(=O)(=O)Nc3ncccn3)cc2)o1,"inconclusive: 70.8 µM [inhibitor, single point]",–
O=C(Nc1ccc2c(c1)OCCO2)c1cccc2nc3ccccc3nc12,"inconclusive: 7.94 µM [inhibitor, partial curve]",–
COc1ccc(O)c(/C=C2/SC(=S)N(Cc3ccccc3)C2=O)c1,"inconclusive: 20 µM [inhibitor, full curve]",–
CC(=O)c1ccc(NS(=O)(=O)c2ccc(N)cc2)cc1,"inconclusive: 39.8 µM [inhibitor, single point]",–
Cc1ccc2nc(-c3ccc(O)c(O)c3)cn2c1,"inconclusive: 79.4 µM [inhibitor, single point]",–
COc1ccc2oc(=O)c(C(=O)NCc3ccccc3)cc2c1,–,inactive: 33.8%
COc1cc(NC(=O)COc2cccc3c2OC(C)(C)C3)cc(OC)c1OC,–,inactive: 38.2%
COc1ccccc1NC(=O)Cn1c(=O)n(-c2cccc(Cl)c2)c(=O)c2c1c1cc(C)ccc1n2C,–,inactive: 26.3%
CC1=C(c2ccc(C)c(C)c2)S(=O)(=O)N=C1N1CCC(C(=O)Nc2cccc(F)c2)CC1,"inconclusive: 89.1 µM [inhibitor, partial curve, poor fit]",–
COc1ccccc1OCC(=O)NN=C(Cc1ccccc1)Cc1ccccc1,"inconclusive: 35.5 µM [inhibitor, partial curve, poor fit]",–

Compound,Potency,"activity change, negative = inhibition"
CC(CNCC1CCCO1)COc1cccc2ccccc12 (stereo not drawn),"inconclusive: 56.2 µM [inhibitor, partial curve, poor fit]",–
CCN(CC(=O)Nc1c(C(=O)OC)[nH]c2ccc(Cl)cc12)c1ccc2c(c1)OCO2,"inconclusive: 39.8 µM [inhibitor, single point]",–
O=c1ccc(N=Nc2ccccc2)ccc1O,"inconclusive: 17.8 µM [inhibitor, full curve]",–
Cc1c(N(C)C)nc2ccccc2c1N,active: 14.1 µM,–
Cc1c(NC(=O)CSc2n[nH]c(=O)n2-c2ccccc2)c(=O)n(-c2ccccc2)n1C,"inconclusive: 25.1 µM [inhibitor, single point]",–
CCN(c1ccc(NC(=O)COC(=O)CCC(=O)c2ccc(F)cc2)cc1)C(C)C,"inconclusive: 44.7 µM [inhibitor, single point]",–
Cc1ccc(Nc2nnc(SCC(=O)NC(Cc3c[nH]c4ccccc34)C(=O)O)s2)cc1 (stereo not drawn),–,inactive: 0.733%
O=C(O)C1CSC(c2coc3ccccc3c2=O)N1 (stereo not drawn),"inconclusive: 89.1 µM [inhibitor, partial curve, poor fit]",–
O=C(COC(=O)COc1ccc(Nc2ccccc2)cc1)NCc1ccco1,"inconclusive: 79.4 µM [inhibitor, single point]",–
O=C(OC(C(=O)Nc1ccc(Cl)cc1C(F)(F)F)c1ccccc1)c1c(Cl)cccc1Cl (stereo not drawn),"inconclusive: 39.8 µM [inhibitor, single point]",–
CC(=O)N1CCc2c(sc(NC(=O)C3CCCN3S(=O)(=O)c3cccs3)c2C(N)=O)C1 (stereo not drawn),–,inactive: 8.86%
COc1ccc(N=Nc2c(N)nn(C)c2N)cc1,active: 79.4 µM,–
C=CCSc1nnc(-c2sc(-c3ccccc3)nc2C)n1C,–,inactive: 42.4%
CN(C)c1ccc(CC(=O)c2nc3ccccc3s2)cc1,"inconclusive: 17.8 µM [inhibitor, full curve]",–
COc1ccccc1N1CCN(Cc2ccc(Br)o2)CC1,"inconclusive: 50.1 µM [inhibitor, partial curve]",–
O=C(NCCNC(=O)Oc1cccc2ccccc12)Oc1cccc2ccccc12,"inconclusive: 50.1 µM [inhibitor, partial curve, poor fit]",–
COc1ccc(Cn2ccnc2SCC(=O)Nc2cc(C(F)(F)F)ccc2Cl)cc1,"inconclusive: 14.1 µM [inhibitor, partial curve]",–
Cc1ccc(Nc2c([N+](=O)[O-])ccc3nonc23)cc1C,–,inactive: -10.6%
C=C1C(=O)O[C@@H]2[C@H]3O[C@]3(C)CC/C=C(\C)CC[C@@H]12,–,inactive: 55.3%
O=C(CCn1c(=S)oc2ccccc21)NC1CCCCCCC1,–,inactive: 16.3%
COc1cc(/C=N/N2CCN(C3c4ccccc4-c4ccccc43)CC2)cc(OC)c1OC,"inconclusive: 28.2 µM [inhibitor, full curve]",–
CCOC(=O)C1CCN(Cc2ccc(F)cc2)CC1,"inconclusive: 89.1 µM [inhibitor, single point]",–
